# This is one part of the list.
# B1: Epa10 (protein)
# chain: MNEKIFRYLTLLFLFELARSLPVEDKLNIKKVFEKRAVDFTPFAHYPRPEGCSSPPNSVSVGLHMNLYNYPYLYVKPSTKGMFTNDTNSDADGETDGDSAGGIEGRAGQCWNPEYQDPNFPRFGYKQYGEFGASDNVNGDISWDHNEFTEGCKPVLAALPPGYNYPDEITFSNFTMVLSGYFKPKTSGVYKFELKADDFILFNFGAKNAFECCNREESIDNFGPYVAYAMWPNQADQELEVYLFEDSYYPLRLFYNNRDYHSKFKIGFYPPGQTTITFDFDGYLFMLDDTGNECRDSIRYRTVCDDKVVDDTTYSTRYSTSMVPGGGSDVITIYYIRMKCEEEDCLGQWDPINNVCYSPDDCADDGGYWNGQMCDQSCKLEGGIVNPDTGDCDKSCIESGGFLDENGNCDTTCRDDGGMLVEGQCDYQCKEAGGILVGDHCDTTCVDSGGKLNEDGTCDHSCRDQGGQLDENGECDTSCKDSGGMLIEGECDTSCKDEGGQLDDNNECINHCKDQGGIIDENGNCDTSCKDSGGKLDESGACDTSCRDDGGIIDENGNCNTTCRDDGGIIVGDHCDTSCRDAGGILIEDHCDTTCRDSGGKLNEDGTCDHSCRDQGGQLDENGKCDYSCKNGGGKLDEDGNCDMSCKENGGKLDENGDCDLSCKEDGGKLDGNGDCDYSCKEEGGVIDESGNCNTTCKDSGGQIIDGECNYGCIEVGGVVIDGECDTSCIDSGGILDGDGNCDRSCIESGGVLEDGACNTTCRDSGGQLNVDGTCDTSCRDDGGMLVEGQCDYQCKEAGGILEDGECVFPPTSSSTSETSSTTDQSSLQSDDSSMESSSTPMDSSTIESSSSEIITSESESESVPIASSSSEVMTSESESESIPILTSSSEIPIASSSSEIPVASSSSEIIIPESESESVPVASSSSEIPIASSSSEIPVASSSSEIPVASSSSEIIIPESESESIPIESTSSEAVSSRSESDSSYPTPTPTTTTITTWPNPIQPTTSNSSPIVSSSTETPGIAESSSRISDLESSRRTSILGDDRTRTRTTITSTITEDGQIITITTTVTGFVPEPTGETEGNGSDDENPENPIENNTDENEFLDPEFTDDIPDDPAGPEDNGNGPVNPEQGNDNDPVNLEDSGNNGAVNPEQAPVNDEDNGGNDPVNPEQDNNNGPANPGQDSTNGSGNSDQIDNNPPTPEENAGDGNSNGNDPADPSRRTSILGDERTRASPGGTSQPTGANGNVNGNSPGANVNGGGTGNSNNNNNNNNNNNNGNAPNGGDGSNGDANQGPSRRTSLLGDERTRAGQAAPTGGSSPDNGIAGDTSNNGGAIVSQQVDDGGAGSPRRTSILGDVRSRTTLNGEVLNFEGSGVRRAVAGNLALPLMMVGLVFNL
# Assays:
# Test in all cases: glycan array binding signal (z-score within array); higher = stronger binding
# Details in all cases: glycan notation: IUPAC condensed, linker removed
# [1] = target: Fuc(a1-2)Gal6S(b1-3)GlcNAc6S
# Summary of the method: (§1)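 The binding signal is a Z-score computed within each array and averaged over linkers. Arrays of the same protein sequence at different concentrations or buffers were also averaged together. Data originate from 3228 arrays in the Consortium for Functional Glycomics database, kept only where the protein sequence was available.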
# [2] = target: Fuc(a1-2)Gal6S(b1-4)Glc
# Summary of the method: as §1
# [3] = target: Fuc(a1-2)Gal6S(b1-4)Glc6S
# Summary of the method: as §1
# [4] = target: Fuc(a1-2)[Gal(a1-3)]Gal
# Summary of the method: as §1
# [5] = target: Fuc(a1-2)[Gal(a1-3)]Gal(b1-3)GalNAc
# Summary of the method: as §1
# [6] = target: Fuc(a1-2)[Gal(a1-3)]Gal(b1-3)GalNAc(b1-3)Gal(a1-4)Gal(b1-4)Glc
# Summary of the method: as §1
# [7] = target: Fuc(a1-2)[Gal(a1-3)]Gal(b1-3)GlcNAc
# Summary of the method: as §1
# [8] = target: Fuc(a1-2)[Gal(a1-3)]Gal(b1-3)GlcNAc(b1-2)Man(a1-3)[Fuc(a1-2)[Gal(a1-3)]Gal(b1-3)GlcNAc(b1-2)Man(a1-6)]Man(b1-4)GlcNAc(b1-4)GlcNAc
# Summary of the method: as §1
# [9] = target: Fuc(a1-2)[Gal(a1-3)]Gal(b1-3)GlcNAc(b1-2)Man(a1-3)[Fuc(a1-2)[Gal(a1-3)]Gal(b1-3)GlcNAc(b1-2)Man(a1-6)]Man(b1-4)GlcNAc(b1-4)[Fuc(a1-6)]GlcNAc
# Summary of the method: as §1
# [10] = target: Fuc(a1-2)[Gal(a1-3)]Gal(b1-3)GlcNAc(b1-3)GalNAc
# Summary of the method: as §1
# [11] = target: Fuc(a1-2)[Gal(a1-3)]Gal(b1-3)GlcNAc(b1-6)GalNAc
# Summary of the method: as §1
# [12] = target: Fuc(a1-2)[Gal(a1-3)]Gal(b1-4)Glc
# Summary of the method: as §1
# [13] = target: Fuc(a1-2)[Gal(a1-3)]Gal(b1-4)GlcNAc
# Summary of the method: as §1
# [14] = target: Fuc(a1-2)[Gal(a1-3)]Gal(b1-4)GlcNAc(b1-2)Man
# Summary of the method: as §1
# [15] = target: Fuc(a1-2)[Gal(a1-3)]Gal(b1-4)GlcNAc(b1-2)Man(a1-3)[Fuc(a1-2)[Gal(a1-3)]Gal(b1-4)GlcNAc(b1-2)Man(a1-6)]Man(b1-4)GlcNAc(b1-4)GlcNAc
# Summary of the method: as §1
# [16] = target: Fuc(a1-2)[Gal(a1-3)]Gal(b1-4)GlcNAc(b1-2)Man(a1-3)[Fuc(a1-2)[Gal(a1-3)]Gal(b1-4)GlcNAc(b1-2)Man(a1-6)]Man(b1-4)GlcNAc(b1-4)[Fuc(a1-6)]GlcNAc
# Summary of the method: as §1
# [17] = target: Fuc(a1-2)[Gal(a1-3)]Gal(b1-4)GlcNAc(b1-3)GalNAc
# Summary of the method: as §1
# [18] = target: Fuc(a1-2)[Gal(a1-3)]Gal(b1-4)GlcNAc(b1-3)[Fuc(a1-2)[Gal(a1-3)]Gal(b1-4)GlcNAc(b1-6)]GalNAc
# Summary of the method: as §1
# [19] = target: Fuc(a1-2)[Gal(a1-3)]Gal(b1-4)GlcNAc(b1-6)GalNAc
# Summary of the method: as §1
# [20] = target: Fuc(a1-2)[Gal(a1-3)]Gal(b1-4)[Fuc(a1-3)]Glc
# Summary of the method: as §1
# [21] = target: Fuc(a1-2)[Gal(a1-3)]Gal(b1-4)[Fuc(a1-3)]GlcNAc
# Summary of the method: as §1
# [22] = target: Fuc(a1-2)[Gal(a1-3)]Gal(b1-4)[Fuc(a1-3)]GlcNAc(b1-3)GalNAc
# Summary of the method: as §1
# [23] = target: Fuc(a1-2)[Gal(a1-4)]Gal(b1-4)GlcNAc
# Summary of the method: as §1
# [24] = target: Fuc(a1-2)[GalNAc(a1-3)]Gal
# Summary of the method: as §1
# [25] = target: Fuc(a1-2)[GalNAc(a1-3)]Gal(b1-3)GalNAc(a1-3)[Fuc(a1-2)]Gal(b1-4)GlcNAc
# Summary of the method: as §1
# [26] = target: Fuc(a1-2)[GalNAc(a1-3)]Gal(b1-3)GalNAc(b1-3)Gal(a1-4)Gal(b1-4)Glc
# Summary of the method: as §1
# [27] = target: Fuc(a1-2)[GalNAc(a1-3)]Gal(b1-3)GlcNAc
# Summary of the method: as §1
# [28] = target: Fuc(a1-2)[GalNAc(a1-3)]Gal(b1-3)GlcNAc(b1-2)Man(a1-3)[Fuc(a1-2)[GalNAc(a1-3)]Gal(b1-3)GlcNAc(b1-2)Man(a1-6)]Man(b1-4)GlcNAc(b1-4)GlcNAc
# Summary of the method: as §1
# [29] = target: Fuc(a1-2)[GalNAc(a1-3)]Gal(b1-3)GlcNAc(b1-2)Man(a1-3)[Fuc(a1-2)[GalNAc(a1-3)]Gal(b1-3)GlcNAc(b1-2)Man(a1-6)]Man(b1-4)GlcNAc(b1-4)[Fuc(a1-6)]GlcNAc
# Summary of the method: as §1
# [30] = target: Fuc(a1-2)[GalNAc(a1-3)]Gal(b1-3)GlcNAc(b1-3)GalNAc
# Summary of the method: as §1
# [31] = target: Fuc(a1-2)[GalNAc(a1-3)]Gal(b1-3)GlcNAc(b1-6)GalNAc
# Summary of the method: as §1
# [32] = target: Fuc(a1-2)[GalNAc(a1-3)]Gal(b1-4)Glc
# Summary of the method: as §1
# [33] = target: Fuc(a1-2)[GalNAc(a1-3)]Gal(b1-4)GlcNAc
# Summary of the method: as §1
# [34] = target: Fuc(a1-2)[GalNAc(a1-3)]Gal(b1-4)GlcNAc(b1-2)Man
# Summary of the method: as §1
# [35] = target: Fuc(a1-2)[GalNAc(a1-3)]Gal(b1-4)GlcNAc(b1-2)Man(a1-3)[Fuc(a1-2)[GalNAc(a1-3)]Gal(b1-4)GlcNAc(b1-2)Man(a1-6)]Man(b1-4)GlcNAc(b1-4)GlcNAc
# Summary of the method: as §1
# [36] = target: Fuc(a1-2)[GalNAc(a1-3)]Gal(b1-4)GlcNAc(b1-2)Man(a1-3)[Fuc(a1-2)[GalNAc(a1-3)]Gal(b1-4)GlcNAc(b1-2)Man(a1-6)]Man(b1-4)GlcNAc(b1-4)[Fuc(a1-6)]GlcNAc
# Summary of the method: as §1
# [37] = target: Fuc(a1-2)[GalNAc(a1-3)]Gal(b1-4)GlcNAc(b1-3)Gal(b1-4)GlcNAc
# Summary of the method: as §1
# [38] = target: Fuc(a1-2)[GalNAc(a1-3)]Gal(b1-4)GlcNAc(b1-3)Gal(b1-4)GlcNAc(b1-3)Gal(b1-4)GlcNAc
# Summary of the method: as §1
# [39] = target: Fuc(a1-2)[GalNAc(a1-3)]Gal(b1-4)GlcNAc(b1-3)GalNAc
# Summary of the method: as §1
# [40] = target: Fuc(a1-2)[GalNAc(a1-3)]Gal(b1-4)GlcNAc(b1-3)[Fuc(a1-2)[GalNAc(a1-3)]Gal(b1-4)GlcNAc(b1-6)]GalNAc
# Summary of the method: as §1
# [41] = target: Fuc(a1-2)[GalNAc(a1-3)]Gal(b1-4)GlcNAc(b1-6)GalNAc
# Summary of the method: as §1
# [42] = target: Fuc(a1-2)[GalNAc(a1-3)]Gal(b1-4)[Fuc(a1-3)]GlcNAc
# Summary of the method: as §1
# [43] = target: Fuc(a1-2)[GalNAc(a1-3)]Gal(b1-4)[Fuc(a1-3)]GlcNAc(b1-3)GalNAc
# Summary of the method: as §1
# [44] = target: Fuc(a1-2)[GalNAc(a1-4)]Gal(b1-4)GlcNAc
# Summary of the method: as §1
# [45] = target: Fuc(a1-2)[GalNAc(b1-3)]Gal
# Summary of the method: as §1
binder,measurement,setting,value
B1,glycan array binding signal (z-score),[1],-0.129
same,glycan array binding signal (z-score),[2],-0.269
same,glycan array binding signal (z-score),[3],-0.234
same,glycan array binding signal (z-score),[4],-0.229
same,glycan array binding signal (z-score),[5],-0.17
same,glycan array binding signal (z-score),[6],-0.256
same,glycan array binding signal (z-score),[7],-0.196
same,glycan array binding signal (z-score),[8],-0.134
same,glycan array binding signal (z-score),[9],-0.19
same,glycan array binding signal (z-score),[10],-0.269
same,glycan array binding signal (z-score),[11],-0.216
same,glycan array binding signal (z-score),[12],-0.272
same,glycan array binding signal (z-score),[13],-0.185
same,glycan array binding signal (z-score),[14],-0.139
same,glycan array binding signal (z-score),[15],-0.112
same,glycan array binding signal (z-score),[16],-0.219
same,glycan array binding signal (z-score),[17],-0.253
same,glycan array binding signal (z-score),[18],-0.185
same,glycan array binding signal (z-score),[19],-0.16
same,glycan array binding signal (z-score),[20],-0.253
same,glycan array binding signal (z-score),[21],-0.207
same,glycan array binding signal (z-score),[22],-0.118
same,glycan array binding signal (z-score),[23],0.73
same,glycan array binding signal (z-score),[24],-0.271
same,glycan array binding signal (z-score),[25],-0.215
same,glycan array binding signal (z-score),[26],-0.219
same,glycan array binding signal (z-score),[27],-0.231
same,glycan array binding signal (z-score),[28],-0.272
same,glycan array binding signal (z-score),[29],-0.228
same,glycan array binding signal (z-score),[30],-0.137
same,glycan array binding signal (z-score),[31],-0.228
same,glycan array binding signal (z-score),[32],-0.26
same,glycan array binding signal (z-score),[33],-0.251
same,glycan array binding signal (z-score),[34],-0.225
same,glycan array binding signal (z-score),[35],-0.175
same,glycan array binding signal (z-score),[36],-0.227
same,glycan array binding signal (z-score),[37],-0.315
same,glycan array binding signal (z-score),[38],-0.182
same,glycan array binding signal (z-score),[39],-0.211
same,glycan array binding signal (z-score),[40],-0.237
same,glycan array binding signal (z-score),[41],-0.201
same,glycan array binding signal (z-score),[42],-0.164
same,glycan array binding signal (z-score),[43],-0.113
same,glycan array binding signal (z-score),[44],-0.334
same,glycan array binding signal (z-score),[45],-0.284
